The values below come from PMC7819943, “Rice protein-binding microarrays: a tool to detect cis-acting elements near promoter regions in rice”.

The list shows a part of the results.

This assay addresses T1, OsWOX13 (Oryza sativa, UniProt Q5QMM3 1-267).
T1 sequence: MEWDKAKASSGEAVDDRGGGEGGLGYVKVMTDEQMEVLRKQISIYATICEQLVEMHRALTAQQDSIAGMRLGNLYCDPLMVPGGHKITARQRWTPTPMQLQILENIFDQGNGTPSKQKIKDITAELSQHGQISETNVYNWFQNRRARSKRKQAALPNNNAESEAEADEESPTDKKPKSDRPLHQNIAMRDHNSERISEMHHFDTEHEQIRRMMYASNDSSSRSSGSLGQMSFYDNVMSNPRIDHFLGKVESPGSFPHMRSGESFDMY
As to the kind of experiment: protein-binding microarray (RPBM); PBS, 2% BSA, 51.3 ng/ul salmon testes DNA, 50 uM zinc acetate, 200 nM TF, 25 C, 1 h; high values mean tight binding. The following applies: protein: recombinant; tags: N-terminal polyhistidine and DsRed monomer fusion (pET32a); label: CyDye5-dUTP incorporated in the synthesized complementary strand; 3' TTTTT single-stranded linker to array surface; dsDNA, one strand shown. In a few lines:
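An Axon 4000B scanner gave the binding signal as per-feature fluorescence intensity in arbitrary units. This followed washing of a custom Agilent array that had been incubated for 1 h at 25 °C with 200 nM protein in PBS, 2% BSA, salmon testes DNA and 50 µM zinc acetate. The proteins were transcription factors fused at the N-terminus to polyhistidine and DsRed, expressed in E. coli BL21-CodonPlus and purified on Ni–NTA.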
As to “AAACTCAGTATCATGAATGATTGGTGTAACCGTGTAAGTGCGGAGTCACCTAGTGCAG”, the binding signal is 11100 fluorescence intensity (a.u.). Take “ACACACATTATTAACTTATCCCGATACAAATAGATTTAGACGGAGTCACCTAGTGCAG”: the binding signal is 3160 fluorescence intensity (a.u.). Consider “ATTACTAATAATTGCTATATGTTAATCTTTAGATACTTGACGGAGTCACCTAGTGCAG”, for which the binding signal is 15100 fluorescence intensity (a.u.). Take “ACATTTTAATGGAAATAAACATTTACTTATTTCTCATGTGCGGAGTCACCTAGTGCAG”: the binding signal is 7630 fluorescence intensity (a.u.). In the case of “TTATACAGTTTACATGTAAATCACGAGAAGAATCTTTTGACGGAGTCACCTAGTGCAG” it was 4050 fluorescence intensity (a.u.); in that of “GTAACAATCACATTACAAATCAGAGGCAACAGATTACAAGCGGAGTCACCTAGTGCAG”, 19800 fluorescence intensity (a.u.); in that of “TTACAAATGATACCATAAATTAAATAACACATCGATGTCTCGGAGTCACCTAGTGCAG”, 3280 fluorescence intensity (a.u.).

For the sequence “CAGATTGTTATAATTACTCCTGTTGTTGTGAAGAGACCACCGGAGTCACCTAGTGCAG”, the binding signal was 26000 fluorescence intensity (a.u.). In the case of “AATGAAGTATAATCAATTACTATGATGTTAATTATACTCCCGGAGTCACCTAGTGCAG”, the binding signal was 24200 fluorescence intensity (a.u.). Regarding “TGCCATAAATTGTTTGTCATGGTATTGTAAAAGTCACTCTCGGAGTCACCTAGTGCAG”, the binding signal is 8610 fluorescence intensity (a.u.).

As to “CGTTGACATGAAGTTTTATTCAAGAGGCTCCATATTTTCACGGAGTCACCTAGTGCAG”, the binding signal is 10400 fluorescence intensity (a.u.). To “GTAATTAAAACTCAATGAATCACATGTTATTACCACCTCACGGAGTCACCTAGTGCAG” belongs 3970 fluorescence intensity (a.u.); to “AGAGACAGCGAATCAATTAGCCAATGCTAATAATTTATAACGGAGTCACCTAGTGCAG”, 8160 fluorescence intensity (a.u.). For the sequence “TATTGATTTCCACTATTCCCTTTGTAATCTGTGATTTCCACGGAGTCACCTAGTGCAG”, the binding signal is 9240 fluorescence intensity (a.u.).

“GAGAGATTGATGCATGAGCCGGCCAGGTCCAGCCAGATCGCGGAGTCACCTAGTGCAG”: the binding signal was 28000 fluorescence intensity (a.u.). Regarding “ATTCGATGTGATAATTTTGTTTCGGAACTAAACAACCCCTCGGAGTCACCTAGTGCAG”, the binding signal is 4150 fluorescence intensity (a.u.). As to “TTAATTAAAATTAAAACGATGTGACGGAAAGGTTACTCCCCGGAGTCACCTAGTGCAG”, the binding signal is 26800 fluorescence intensity (a.u.). To “CACCAGTGATTAGCTTGCCAGAGTGTCCAATCATATCGAACGGAGTCACCTAGTGCAG” belongs 23700 fluorescence intensity (a.u.); to “AGTATAATTATACTATATTTAGACTTTCCCAAGCCAGTTACGGAGTCACCTAGTGCAG”, 10400 fluorescence intensity (a.u.); to “ATGATTATGTATTATACTCCCTCCGTTTCACAATATAAGTCGGAGTCACCTAGTGCAG”, 18300 fluorescence intensity (a.u.). To “TATGGTTGTAATTGGTTGAGATAATATAACAAGTGATGAACGGAGTCACCTAGTGCAG” belongs 11700 fluorescence intensity (a.u.); to “ACTGATTTTGCTTCCCTTCACAAATCACAACCCTAACTACCGGAGTCACCTAGTGCAG”, 16900 fluorescence intensity (a.u.). With “TACTAAATTAGGCTATGGGTGGATGAGTGCTGAAAGTTATCGGAGTCACCTAGTGCAG”, the binding signal was 7240 fluorescence intensity (a.u.). In the case of “TGTGATGAACAATTAGCATATGAGATTATCGGTTTTAATACGGAGTCACCTAGTGCAG”, the binding signal is 11600 fluorescence intensity (a.u.). To “AGCTTAATGTTCACTTGACTAATTAGTTCATTATTCCACACGGAGTCACCTAGTGCAG” belongs 21900 fluorescence intensity (a.u.); to “GCTAATGGGATGTACCATCTCAAGCCTTTGGACGGTAATGCGGAGTCACCTAGTGCAG”, 4690 fluorescence intensity (a.u.); to “TCCTTGCACAATCATTATTCCCTTTCTTGCTTACTTTCTTCGGAGTCACCTAGTGCAG”, 3220 fluorescence intensity (a.u.).

With “ATGTCATCCAATCATACACTGTACGCGCACACACACATGACGGAGTCACCTAGTGCAG”, the binding signal was 6740 fluorescence intensity (a.u.). As for “GCGTTAACTACTTTAATTGTGACATTTATCCCTATTTATACGGAGTCACCTAGTGCAG”, the binding signal is 11800 fluorescence intensity (a.u.).

Turning to “GGCAGTATAATTGAACGATGATATCGTACAATTCTTCCATCGGAGTCACCTAGTGCAG”, the binding signal was 16800 fluorescence intensity (a.u.). To “CTAAATTAATTTTCATATAGAATCTTGAAATGTTCAATATCGGAGTCACCTAGTGCAG” belongs 20900 fluorescence intensity (a.u.). In the case of “AATGGTTGTGATTATGTTTCTCGTGCCAAATCTGTTCGCTCGGAGTCACCTAGTGCAG”, the binding signal is 3400 fluorescence intensity (a.u.).

“TCTGAATTATTCTATTACTGATATGTGGCAACTAATTATTCGGAGTCACCTAGTGCAG”: the binding signal was 6630 fluorescence intensity (a.u.). Consider “AATAATTAGAAATGTCAAGTTTCACTACATTCTATAAGCCCGGAGTCACCTAGTGCAG”, for which the binding signal is 41500 fluorescence intensity (a.u.). To “TTTCAATATAATATTTAATTATGAGAACTTCTGATCGAGTCGGAGTCACCTAGTGCAG” belongs 8920 fluorescence intensity (a.u.); to “ATATATTTTGATAATATGATTGTTGTGTTGAAAATACTAACGGAGTCACCTAGTGCAG”, 3700 fluorescence intensity (a.u.).

Consider “CGAGCTTTGATTGTTTGTTAGTAGTAGTAATTTTCTCATGCGGAGTCACCTAGTGCAG”, for which the binding signal was 32000 fluorescence intensity (a.u.). As to “ACGAGCACTGGTGATTTACCTGATTGGCCGGCCGATTGCTCGGAGTCACCTAGTGCAG”, the binding signal is 22300 fluorescence intensity (a.u.). As to “TGTAAATTATATGGTGTATAAATACCGACGTGTCTAGACCCGGAGTCACCTAGTGCAG”, the binding signal is 22700 fluorescence intensity (a.u.). In the case of “TTGATTGATCTTCGAACTTTAAACTTAGGCTGTGTTTAGTCGGAGTCACCTAGTGCAG” it was 44400 fluorescence intensity (a.u.). On to “AATGATTATTCTACTTTCCAATCGCCATTCCGGGAAAGCTCGGAGTCACCTAGTGCAG”, for which the binding signal was 25400 fluorescence intensity (a.u.). To “ACAAATTTTGCATAATCTCATCCTTGTGTACTTGAGCCTGCGGAGTCACCTAGTGCAG” belongs 6460 fluorescence intensity (a.u.).
